# Screen size: about 310,000 compounds; about 14,000 (4.5%) showed an effect of 50% or more. Effects have a minus sign here. The list shows a part of the results.
# Target: human ether-à-go-go-related gene (hERG) potassium channel (human, UniProt Q12809)
# Experiment: primary screen, population patch clamp on CHO cells stably expressing hERG
# 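Further: peak tail current of the secondary pulse compared with the same well before compound.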
# human ether-à-go-go-related gene (hERG) potassium channel, sequence (Q12809 whole entry, looked up): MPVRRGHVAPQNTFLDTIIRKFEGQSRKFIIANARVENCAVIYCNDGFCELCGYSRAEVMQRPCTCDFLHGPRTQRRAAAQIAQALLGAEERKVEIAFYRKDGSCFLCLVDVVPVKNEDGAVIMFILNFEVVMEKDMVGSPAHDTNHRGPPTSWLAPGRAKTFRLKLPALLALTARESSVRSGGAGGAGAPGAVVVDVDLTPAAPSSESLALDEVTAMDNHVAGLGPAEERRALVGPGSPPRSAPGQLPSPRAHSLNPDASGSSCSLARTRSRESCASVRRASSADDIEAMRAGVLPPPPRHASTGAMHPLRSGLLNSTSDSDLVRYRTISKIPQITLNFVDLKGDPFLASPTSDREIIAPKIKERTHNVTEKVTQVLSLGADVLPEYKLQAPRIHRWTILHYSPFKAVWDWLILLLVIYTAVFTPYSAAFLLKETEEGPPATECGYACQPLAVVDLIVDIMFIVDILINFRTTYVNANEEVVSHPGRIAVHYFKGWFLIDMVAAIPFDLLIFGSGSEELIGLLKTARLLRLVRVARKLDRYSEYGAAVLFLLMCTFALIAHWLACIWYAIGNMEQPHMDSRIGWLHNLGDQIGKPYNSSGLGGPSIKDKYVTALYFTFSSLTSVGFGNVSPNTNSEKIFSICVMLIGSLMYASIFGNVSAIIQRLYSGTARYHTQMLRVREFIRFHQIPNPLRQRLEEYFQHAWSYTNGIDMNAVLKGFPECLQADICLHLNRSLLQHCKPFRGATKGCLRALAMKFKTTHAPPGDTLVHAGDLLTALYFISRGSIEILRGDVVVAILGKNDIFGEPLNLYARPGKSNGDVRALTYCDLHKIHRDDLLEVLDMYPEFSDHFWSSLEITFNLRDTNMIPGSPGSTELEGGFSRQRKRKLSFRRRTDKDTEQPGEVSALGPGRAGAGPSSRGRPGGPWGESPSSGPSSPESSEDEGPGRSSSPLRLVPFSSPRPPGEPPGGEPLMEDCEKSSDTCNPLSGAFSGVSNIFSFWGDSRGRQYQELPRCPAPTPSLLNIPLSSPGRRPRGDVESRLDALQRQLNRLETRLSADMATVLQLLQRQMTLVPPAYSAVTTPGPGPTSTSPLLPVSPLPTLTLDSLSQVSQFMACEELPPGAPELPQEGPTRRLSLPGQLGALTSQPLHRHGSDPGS
row,Structure (SMILES),"hERG current change (%, negative = inhibition) at 10uM [%]"
1,COc1ccc(CCNC(=O)C(=O)NCc2cccs2)cc1OC,8.95
2,O=C(NCc1ccco1)c1ccc(Cl)s1,-3.82
3,O=C(Nc1cccc(Cl)c1)NC1(C(=O)NCc2cccs2)CCCCC1,9.15
4,Cc1ccc(NC(=O)CN(c2ccccc2)S(=O)(=O)N(C)C)cc1,-11.5
5,O=C(NC1CCCC1)c1ccc(CS(=O)(=O)Cc2ccccc2F)o1,-7.89
6,COc1ccc(C(=O)NC2CCCc3ccccc32)cc1OC1CCN(C(C)=O)CC1 (centres unmarked),-12.9
7,O=C(CCC(=O)Nc1ccc(Br)cc1)N/N=C/c1ccc(O)cc1,10.1
8,O=C(COc1cc2oc(=O)cc(-c3ccccc3)c2cc1Cl)NCC1CCC(C(=O)O)CC1 (centres unmarked),-10.2
9,Cc1ccc(C(=O)N/N=C/c2nc3ccccc3n2C)cc1,10.1
10,O=C(NCCC1=CCCCC1)C1CCN(S(=O)(=O)N2CCOCC2)CC1,-11.6
11,CCCn1c(NC(=O)C23CC4CC(CC(O)(C4)C2)C3)nc2ccccc21,-5
12,Cc1cc(NC(=O)c2cccc(S(=O)(=O)N(C)C)c2)n(-c2ccccn2)n1,2.07
13,COC(=O)C1=C(C(=O)c2ccccc2)C(c2cccs2)n2nnnc2N1 (centres unmarked),19.8
14,COc1cc(NC(=O)C(C)C)ccc1NC(=O)c1cc2ccccc2o1,16.6
15,COc1cc(/C=C/C(=O)O)ccc1OS(=O)(=O)c1c(C)c(C)cc(C)c1C,-27.1
16,Fc1ccccc1Nc1nc2ccccc2o1,-17.2
17,Cc1c(NC(=O)C(C)OC(=O)c2cc(Cl)nc(Cl)c2)c(=O)n(-c2ccccc2)n1C (centres unmarked),-13.6
18,CC1CN(C(=O)CCC(=O)NC2CCN(Cc3ccccc3)CC2)c2ccccc2O1 (centres unmarked),-26.7
19,CCN1/C(=C/c2ccc3ccccc3[n+]2CC)C=Cc2ccccc21.[Cl-],-82.5
20,CCOCCCN1CN(Cc2ccccc2)CNC1=S,14.3
21,Cc1ccc(NC(=O)C2c3ccccc3Oc3ccccc32)c(C)c1,-1.88
22,Cc1cc(Cl)ccc1OCC(=O)NCc1ccncc1,-8.3
23,COC(=O)c1cc2c(=O)c3ccccc3oc2nc1/C=C/N(C)C,4.31

row,Structure (SMILES),"hERG current change (%, negative = inhibition) at 10uM [%]"
1,Cc1cc(NC(=O)COC(=O)c2c(C)noc2C)ccc1Br,7.1
2,CCOC(=O)c1c[nH][nH]c1=O,11.5
3,O=C(O)c1cccc(N2C(=O)c3ccc(C(=O)c4cccc([N+](=O)[O-])c4)cc3C2=O)c1,3.11
4,c1ccc(C2=Nc3ccccc3NC(c3ccccc3)C2)cc1 (centres unmarked),-3.88
5,CCCc1nc2oc(C(=O)OCC)c(N)c2c2c1COC(C)(C)C2,-18.2
6,CCOc1ncccc1C(=O)NCc1ccc(OC)c(OC)c1,6.89
7,COc1ccc(CCNC(=O)c2nnc(Cc3ccc(Cl)cc3)o2)cc1OC,0.114
8,CC(C)(C)c1ccc(-c2cc(C(=O)NNC(=O)Nc3ccccc3)c3ccccc3n2)cc1,13.6
9,Cc1ccc(S(=O)(=O)Nc2cccc(C(=O)NCCCn3ccnc3)c2)cc1F,-6.45
10,O=C(Oc1ccc(-c2cnc3ccccc3n2)cc1)c1cccc([N+](=O)[O-])c1,-2
11,C=CCOc1ccc(Br)cc1/C=C1\NC(=S)N(C(C)=O)C1=O,26
12,Cc1cc(C)c(S(=O)(=O)N2CCCC(C(=O)NCc3cccnc3)C2)c(C)c1 (centres unmarked),-27
13,COc1c(F)c(F)c(-c2csc(N)n2)c(F)c1F,11
14,CCCCn1c(N)c(N(CCOC)C(=O)COC(=O)COc2c(C)cc(C)cc2C)c(=O)[nH]c1=O,7.2
15,Oc1ccccc1-c1nc(NCc2ccccc2)c2ccccc2n1,12.7
16,FC(F)(F)c1cccc(N2CCN(CC3CC4C=CC3C4)CC2)c1 (centres unmarked),-10.6
17,Cl.O=c1oc2ccccc2cc1C1=Nn2c(nnc2-c2cccnc2)SC1,-35.6
18,CC(C)C(NC(=O)c1cccs1)C(=O)NC1CCCCC1 (centres unmarked),11.7
19,CC(=O)c1ccc(S(=O)(=O)Nc2ccc(-c3ccc4nnc(C)n4n3)cc2)cc1,22.9
20,O=C(Nc1ncccn1)c1ccc([N+](=O)[O-])cc1Cl,-4.18
21,O=C(NCc1ccccc1F)c1cc(=O)[nH]c2ccccc12,19.1
22,CCN(CC)C(=O)c1ccccc1NC(=O)c1ccccc1SC,-39.6
23,CCCn1c(N)c(C(=O)CSc2nnc(C)n2Cc2ccccc2)c(=O)n(C)c1=O,-4.68

row,Structure (SMILES),"hERG current change (%, negative = inhibition) at 10uM [%]"
1,O=C(COc1ccccc1[N+](=O)[O-])Nc1cccc(C(=O)Nc2ccccc2C(=O)O)c1,19.8
2,Cc1cc(-c2nnc(CCC(=O)N(CC3CCC3)CC3CCCO3)o2)no1 (centres unmarked),2.6
3,COC(=O)Cc1ccc(NC(=S)N2CCCC(C)C2)cc1 (centres unmarked),12.7
4,C=CCn1c(SC(C)C(N)=O)nc2sc(CC)cc2c1=O (centres unmarked),-35.5
5,COc1cc2ccccc2cc1C(=O)N(CCN(C)C)c1nc2ccc(Br)cc2s1.Cl,9.85
6,C=CCN(Cc1nc(-c2ccccc2)no1)C(=O)c1ccco1,-5.47
7,Cn1cccc1/C=N/NC(=O)c1ccccn1,3.61
8,COc1cc(/C=N/NC(=S)NCc2ccccc2)ccc1OCC#N,-11.2
9,CCN(CC)C(=O)Oc1ccc2ccccc2c1Cl,-1.1
10,CC(NC(=O)/C=C/c1ccc(Br)cc1)c1ccccc1 (centres unmarked),13
11,O=C(Nc1ccccn1)NC1CCS(=O)(=O)C1 (centres unmarked),-3.01
12,CCN(CC)S(=O)(=O)c1ccc(N2CCCC2)c(C(=O)OCC(=O)/C(C#N)=C(\C)N)c1,-5
13,CNC(=O)COC(=O)/C=C/c1cccc(F)c1,14.1
14,CC1CCC(NC(=O)N(CCCl)N=O)CC1 (centres unmarked),8.27
15,COc1ccc(OCc2cc(C(=O)NCC3(C)COC3)no2)c(Cl)c1,-12.3
16,COC(=O)c1sc(SC)nc1N,16.6
17,O=C(CCC(=O)c1ccc(Br)cc1)Nc1cccnc1,-8.76
18,C=CCn1c(=O)c2c3c(sc2n2c(Nc4ccccc4)nnc12)CCCC3,11.9
19,CCN1CCCc2cc(CN(CCN3CCOCC3)C(=S)Nc3cccc(OC)c3)ccc21,12.3
20,O=C1c2cc(Cl)ccc2OC2(CCNCC2)C12CC(c1ccccc1)=NO2 (centres unmarked),-5.69
21,CCOc1ccccc1CNC(=O)C(C)n1nc(C)c2c(C)n(-c3ccccc3)nc2c1=O (centres unmarked),-65.4
22,Cn1c(SCC(=O)Nc2cccc(S(=O)(=O)NC3=NCCCCC3)c2)nnc1-c1ccccc1,7.43
23,COc1ccc(N2CCN(C(=O)CNC(=O)Cc3ccccc3)CC2)cc1,-13.3

row,Structure (SMILES),"hERG current change (%, negative = inhibition) at 10uM [%]"
1,Cc1onc(-c2ccccc2Cl)c1C(=O)Nc1ccc(Br)cc1,14.7
2,CN(C)c1ccc(/C=C2\C(=N)N3N=C(CC(=O)N4CCCCC4)SC3=NC2=O)cc1,-11.7
3,CC(=O)NC1=NN(C(C)=O)C(C)(c2cccc([N+](=O)[O-])c2)S1 (centres unmarked),1.4
4,CC(NC(=O)Nc1nccs1)(C(F)(F)F)C(F)(F)F,4.52
5,CCCc1cc(Nc2ccc(C)cc2)n2ncnc2n1,-4.78
6,CC1=C(C(=O)OCCOc2ccccc2)C(c2coc3ccccc3c2=O)C2=C(CCCC2=O)N1 (centres unmarked),1.53
7,COc1ccc(CNC(=O)Nc2cc(C)ccc2C)cc1,9.53
8,CCCCCOCC1CC(C/C(C)=N/NC(N)=S)C(=O)O1 (centres unmarked),-27.3
9,CC(C)c1onc(C(=O)NC2CCCC2)c1[N+](=O)[O-],11.6
10,COc1ccc(NC2CCCN(C(=O)c3c(C)noc3C)C2)cc1 (centres unmarked),13.3
11,Brc1ccc2ncnc(NCc3cccnc3)c2c1,-60.2
12,O=C(CC(C(=O)O)c1ccc(F)cc1)c1ccc(Cl)cc1 (centres unmarked),15.1
13,COC(=O)C1=C(C(=O)OC)[C@@H]2N(C)c3ccccc3[C@@]23C[C@@H](C(=O)OC)N(C(=O)CC(C)C)C3=N1,2.32
14,COc1ccc(C(=O)NCCSc2ccccn2)cc1,-3.33
15,CC(=O)Oc1ccc(C(=O)Nc2cc(NC(=O)c3ccc(OC(C)=O)cc3)cc(C(=O)NC(C)(C)C)c2)cc1,4.6
16,Cc1ccc(N(CC(=O)NCc2ccc3c(c2)OCO3)C(=O)c2csnn2)cc1,-14.2
17,CCCCNc1nc(-c2ccccc2)c(C(=O)OCC)cc1C#N,-7.25
18,Cc1cc(C)nc([N-]S(=O)(=O)c2ccc(N)cc2)n1.[Na+],-14.9
19,Cc1c(C(=O)C(=O)NCCCn2ccnc2)c2ccccc2n1C,-14.4
20,COC(=O)C1=C(N)Oc2cc(C)[nH]c(=O)c2C1c1cc(OC)c(OC)c(OC)c1 (centres unmarked),-1.15
